In PubChem BioAssay AID1345082 (National Center for Advancing Translational Sciences (NCATS), 2018):
Values joined by “and” are separate entries in the source; they are usually repeats but may differ in a detail not shown here. Identical values can stand only once. Among all 94,000 compounds or so, about 4,000 (4.3%) were called active. The inconclusive results got no clear call from the source; some entries with a clear call stand among them for comparison. Calls follow the shape of the dose curve; as a rule, active = well fitted inhibition curve with a large enough effect; inconclusive = small, poorly fitted or top-dose-only effect; inactive = no such curve, though single readings can be large or run the other way. Potencies beside an inconclusive call are fits to weak or partial responses and may not hold up.
Potency is read from the fitted curve at half-maximal effect; tags tell the direction and shape of the fitted curve.

Experiment: Cytotoxic Profiling in NIH 3T3 Cell Line of Diverse Libraries Using Quantitative High-Throughput Screening; also: nearly all actives have a fitted effect of over 55% in size
Details: NIH 3T3 viability, CellTiter-Glo ATP luminescence, 48-72 h; series mostly up to 96.7 µM
Method in brief: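 NIH 3T3 cells at 400 cells/well received 23 nL of compound by pintool and were incubated 48 or 72 h at 37 °C. Viability was read as ATP-coupled CellTiter-Glo luminescence.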
In the case of CC(=O)Nc1ccc(-c2nnc3n2CCN(C(=O)c2ccc(C)cc2)C3)cc1, the Potency is reported as “inactive”.
In the case of C#CCNC(=O)c1nc(-c2cccc(F)c2)c2cnccn12, the Potency is reported as “inactive and inconclusive: 31.6 µM [inhibitor, partial curve, poor fit]”.
In the case of Cc1nn2c(c1-c1cccnc1N1CCOCC1)N(C(=O)COc1ccccc1)CCC2, the Potency is reported as active: 100 µM.
In the case of Cc1nn(-c2ccc(C(C)C)cc2)c(C)c1[C@@H]1C=C[C@@H](NC(=O)Nc2ccc(Cl)cc2)C1, the Potency is reported as inconclusive: 25.1 µM [inhibitor, partial curve, poor fit].
In the case of CN(Cc1ccccc1)Cc1ccc(-c2ccccc2)cc1, the Potency is reported as “inactive”.
For O=C(Cc1ccccc1)N1CCn2c(nnc2[C@@H]2C[C@@H](O)CN2Cc2ccccc2)C1, the Potency was “inactive”.
For CC(C)CC(=O)C(=O)N1CCN(Cc2cccnc2)[C@@H]2CS(=O)(=O)C[C@@H]21, the Potency was “inactive”.
With COc1ccccc1C(=O)N1CCc2[nH]nc(C(=O)NCCCc3ccccc3)c2C1 the Potency was inconclusive: 44.7 µM [inhibitor, partial curve, poor fit].
In the case of COc1ccc(C(=O)N2CCC(Cc3ccc(CCC(=O)N(C)C)cc3)CC2)cn1, the Potency is reported as inconclusive: 70.8 µM [inhibitor, partial curve, poor fit].
In the case of O=C(CCC1CCCC1)N1CCCC(c2noc(COc3ccccc3)n2)C1 (stereo not drawn), the Potency is reported as inconclusive: 35.5 µM [inhibitor, partial curve, poor fit].
With CCn1cc(C(CC(=O)N2CCC(C)CC2)c2cccc(Cl)c2)c2ccccc21 (stereo not drawn) the Potency was inconclusive: 44.7 µM [inhibitor, partial curve, poor fit].
In the case of COc1ccc(OCC(O)CN2CCC(=O)N(C/C=C/c3ccccc3)CCc3ccccc32)cc1 (stereo not drawn), the Potency is reported as inconclusive: 31.6 µM [inhibitor, partial curve].
For C[C@]1(CO)[C@H]2Cc3sc(NC(=O)c4cccs4)nc3[C@@H](CC(=O)NCc3cccnc3)[C@]2(C)CC[C@H]1O, the Potency was inconclusive: 79.4 µM [inhibitor, partial curve, poor fit].
In the case of COc1ccc(NC(=O)c2cc3c(N(C)Cc4ccccc4)nc(C)cn3n2)cc1, the Potency is reported as inconclusive: 12.6 µM [inhibitor, full curve].
In the case of Cn1ncc2c(C(=O)NCc3cccc(Cl)c3)cc(-c3cccnc3)nc21, the Potency is reported as inconclusive: 44.7 µM [inhibitor, partial curve, poor fit].
With CCc1ccc(S(=O)(=O)N2CC(c3nc(Cc4ccccc4)no3)C2)cc1 the Potency was inconclusive: 70.8 µM [inhibitor, single point].
In the case of O=C1CCN(S(=O)(=O)c2ccccc2)CCCC(C(=O)NCCCN2CCOCC2)CCN1 (stereo not drawn), the Potency is reported as “inactive”.
With Cc1noc2c(-c3cnn(C)c3)cc(-c3cccnc3)nc12 the Potency was inconclusive: 8.91 µM [inhibitor, full curve, poor fit].
In the case of CC(C)c1noc(CC2CCN(C(=O)Cc3ccsc3)CC2)n1, the Potency is reported as “inactive”.
For COC1CCC12CCN(C(=O)CCc1c[nH]c3ccccc13)CC2 (stereo not drawn), the Potency was “inactive”.
For c1cncc(-c2ccnc3nc(CCC4CCCC4)nn23)c1, the Potency was inconclusive: 44.7 µM [inhibitor, partial curve, poor fit].
With Cc1cccc(OCCc2noc(C3CCN(C(=O)NC(C)(C)C)C3)n2)c1 (stereo not drawn) the Potency was inconclusive: 44.7 µM [inhibitor, partial curve].
For CCC1=C(C(=O)OC)C(c2ccccc2Cl)N2C(CC(=O)NCC3CCCO3)=CSC2=N1 (stereo not drawn), the Potency was inconclusive: 70.8 µM [inhibitor, single point].
With CC(C)CNC(=O)c1ccc2nnc(C3CC3)n2c1 the Potency was “inactive”.
In the case of Cc1ccc(C(=O)N2CCC(Cc3nc(-c4ccccc4)no3)CC2)c(C)c1, the Potency is reported as inconclusive: 44.7 µM [inhibitor, partial curve, poor fit].
With C=CCN1C[C@@H]2C[C@@H](C(N)=O)N(C(=O)CC3CCCC3)c3cccc(c32)[S+]1(=O)[O-] the Potency was inconclusive: 7.94 µM [inhibitor, full curve].
For Cc1ccc(F)cc1S(=O)(=O)N1CCn2c(nn(CC3CC3)c2=O)C1, the Potency was “inactive”.
For COc1cccc(NC(=O)N[C@H]2CCN(C(=O)c3cccn3C)[C@@H]2C(=O)N[C@H](Cc2ccccc2)C(N)=O)c1, the Potency was “inactive”.
With COCCNC(=O)[C@@H]1C[C@H](Oc2cccnc2)CN1C(=O)c1nccn1C the Potency was “inactive”.
In the case of O=C(NCCc1ccc(Cl)cc1)C1CCCN1Cc1ccc(-c2cncnc2)cc1 (stereo not drawn), the Potency is reported as inconclusive: 25.1 µM [inhibitor, partial curve].
In the case of CCc1ccc(CNC(=O)CCC2CCCN(S(=O)(=O)c3ccccc3C)C2)cc1 (stereo not drawn), the Potency is reported as inconclusive: 50.1 µM [inhibitor, partial curve, poor fit].
With Cc1ccc(-c2cc(C(=O)NCCc3ccc(F)cc3)nn3cnnc23)cc1 the Potency was inconclusive: 25.1 µM [inhibitor, partial curve].
For CCC(C)NC(=O)c1cc(-c2cccc(OC)c2)nc2c1cnn2C (stereo not drawn), the Potency was inconclusive: 56.2 µM [inhibitor, partial curve, poor fit] and inconclusive: 89.1 µM [inhibitor, partial curve].
With COc1cc(NC(=O)C2CN(S(=O)(=O)C3CC3)CC23CCCCC3)cc(OC)c1 (stereo not drawn) the Potency was inconclusive: 70.8 µM [inhibitor, single point].
With CCOC(=O)c1cccc(NC(=O)N2CC[C@@H](CC(=O)NCc3cccc4ccccc34)[C@@H](CC)C2)c1 the Potency was “inactive”.
With CCCCc1ccc(NC(=O)CN2C(=O)NC(c3ccc(C)cc3)C3=C2COC3=O)cc1 (stereo not drawn) the Potency was inconclusive: 44.7 µM [inhibitor, partial curve, poor fit].
With COc1ccc(OCC2(C)COc3ccc(C(=O)NCC4CCOCC4)cc3N2)cc1 (stereo not drawn) the Potency was inconclusive: 100 µM [inhibitor, partial curve, poor fit].
For O=C(C1CCCCC1)N1CCC(OC2CCN(Cc3cccnc3)CC2)CC1, the Potency was inconclusive: 44.7 µM [inhibitor, partial curve, poor fit].
For COc1ccc(C(=O)NCCC2CCN(C(=O)Nc3cccc(F)c3)CC2)cc1, the Potency was “inactive”.
With COc1ccccc1-c1cnc(NC(=O)c2cccnc2)c2c1CCO2 the Potency was inconclusive: 10 µM [inhibitor, full curve, poor fit].
In the case of CCOC(=O)[C@@H]1CN(C(=O)c2csc(-c3cccs3)n2)[C@H]2c3cccc(F)c3O[C@@H]12, the Potency is reported as inconclusive: 56.2 µM [inhibitor, partial curve, poor fit].
In the case of Cc1noc(-c2ccccc2Cl)c1C(=O)NCCCCc1ccccc1, the Potency is reported as inconclusive: 35.5 µM [inhibitor, partial curve, poor fit].
In the case of COc1cccc(C(=O)NC2CCN(C(=O)c3ccc(-c4cccc(OC)c4)cc3)CC2)c1, the Potency is reported as inconclusive: 31.6 µM [inhibitor, full curve].
With COc1ccc(C(=O)N(C)C2CCOc3ccccc32)cc1 (stereo not drawn) the Potency was “inactive”.
With C#CCNC(=O)c1nc2cccnc2n(CC(C)C)c1=O the Potency was “inactive”.
In the case of O=C1NC2(CCN(C(=O)Cc3ccccc3)CC2)Oc2ccccc21, the Potency is reported as “inactive”.
In the case of C[S+](=O)([O-])NC1=N[C@@]23CO[C@H](c4ccccc4)C[C@@H]2CC(=O)[C@H]3S1, the Potency is reported as inconclusive: 28.2 µM [inhibitor, partial curve].
With O=C(NC1CCCC1)C1CCN(Cc2ccccc2-c2ccccc2F)CC1 the Potency was “inactive”.
With CCc1nn(-c2ccccc2)c(Oc2ccccc2OC)c1CCC(=O)NCCOC the Potency was inconclusive: 50.1 µM [inhibitor, partial curve, poor fit].
With CC(=O)N1CCC(Oc2ccc(Cl)cc2C(=O)NCCOc2cccnc2)CC1 the Potency was “inactive”.
For COCCN1Cc2ccc(Nc3cccnc3)nc2C(C)(C(=O)NCc2ccncc2)C1 (stereo not drawn), the Potency was inconclusive: 89.1 µM [inhibitor, partial curve].
With CCn1nccc1C(=O)N1CCC(Cc2noc(C3CC3)n2)C1 (stereo not drawn) the Potency was inconclusive: 39.8 µM [inhibitor, partial curve, poor fit].
For COc1ccc(CCC(=O)N2CCC3(CC2)NC(=O)N(c2ccc(F)cc2)N3)cc1, the Potency was inconclusive: 44.7 µM [inhibitor, partial curve, poor fit].
With Cc1nnc2ccc(NCc3ccccc3F)nn12 the Potency was inconclusive: 50.1 µM [inhibitor, partial curve, poor fit].
In the case of COC(=O)CNC(=O)C1CCCN(c2nccc(Nc3ccc(C)cc3)n2)C1 (stereo not drawn), the Potency is reported as inconclusive: 70.8 µM [inhibitor, single point].
For CC(C)CN[C@@H]1C[C@H](CO)[C@@H](O)[C@H]1O, the Potency was “inactive”.
In the case of O=C(NCCCc1ccccc1)c1n[nH]c2c1CN(C(=O)c1ccc(F)cc1)CC2, the Potency is reported as active: 28.2 µM.
In the case of CC(C)NC(=O)N1Cc2[nH]cnc2C[C@H]1c1nc(-c2ccc(Cl)cc2)no1, the Potency is reported as inconclusive: 31.6 µM [inhibitor, partial curve, poor fit].
With CCc1ccc(NC(=O)Cn2ccn3nc4c(c3c2=O)CCCC4)cc1 the Potency was inconclusive: 39.8 µM [inhibitor, partial curve].
With Cc1c(-c2ccccc2F)[nH]c2ccc(CNC(=O)CC3CCC(=O)N3)cc12 (stereo not drawn) the Potency was “inactive”.
With O=C1NC2(CCN(C(=O)c3ccc(Cl)cc3)C2)Oc2ccccc21 (stereo not drawn) the Potency was inconclusive: 39.8 µM [inhibitor, partial curve, poor fit].
With COc1ccc(F)cc1-c1ccc(CN2CCC(NC(=O)Nc3ccc(C)c(F)c3)C2)cc1 (stereo not drawn) the Potency was active: 15.8 µM.
In the case of COc1ccc(CCNC(=O)C2CCN(c3ccnc4ccnn34)CC2)cc1, the Potency is reported as inconclusive: 12.6 µM [inhibitor, full curve].
